In article PMC4336329 (PLoS ONE, 2015):
The whole screen tested about 310,000 compounds, of which about 2,200 (0.71%) showed an effect of 50% or more. Effects have a minus sign here. The list shows a part of the results.

molecular target: human ether-à-go-go-related gene (hERG) potassium channel (human, UniProt Q12809); experiment: primary screen, population patch clamp on CHO cells stably expressing hERG
Sequence (Q12809 whole entry, looked up): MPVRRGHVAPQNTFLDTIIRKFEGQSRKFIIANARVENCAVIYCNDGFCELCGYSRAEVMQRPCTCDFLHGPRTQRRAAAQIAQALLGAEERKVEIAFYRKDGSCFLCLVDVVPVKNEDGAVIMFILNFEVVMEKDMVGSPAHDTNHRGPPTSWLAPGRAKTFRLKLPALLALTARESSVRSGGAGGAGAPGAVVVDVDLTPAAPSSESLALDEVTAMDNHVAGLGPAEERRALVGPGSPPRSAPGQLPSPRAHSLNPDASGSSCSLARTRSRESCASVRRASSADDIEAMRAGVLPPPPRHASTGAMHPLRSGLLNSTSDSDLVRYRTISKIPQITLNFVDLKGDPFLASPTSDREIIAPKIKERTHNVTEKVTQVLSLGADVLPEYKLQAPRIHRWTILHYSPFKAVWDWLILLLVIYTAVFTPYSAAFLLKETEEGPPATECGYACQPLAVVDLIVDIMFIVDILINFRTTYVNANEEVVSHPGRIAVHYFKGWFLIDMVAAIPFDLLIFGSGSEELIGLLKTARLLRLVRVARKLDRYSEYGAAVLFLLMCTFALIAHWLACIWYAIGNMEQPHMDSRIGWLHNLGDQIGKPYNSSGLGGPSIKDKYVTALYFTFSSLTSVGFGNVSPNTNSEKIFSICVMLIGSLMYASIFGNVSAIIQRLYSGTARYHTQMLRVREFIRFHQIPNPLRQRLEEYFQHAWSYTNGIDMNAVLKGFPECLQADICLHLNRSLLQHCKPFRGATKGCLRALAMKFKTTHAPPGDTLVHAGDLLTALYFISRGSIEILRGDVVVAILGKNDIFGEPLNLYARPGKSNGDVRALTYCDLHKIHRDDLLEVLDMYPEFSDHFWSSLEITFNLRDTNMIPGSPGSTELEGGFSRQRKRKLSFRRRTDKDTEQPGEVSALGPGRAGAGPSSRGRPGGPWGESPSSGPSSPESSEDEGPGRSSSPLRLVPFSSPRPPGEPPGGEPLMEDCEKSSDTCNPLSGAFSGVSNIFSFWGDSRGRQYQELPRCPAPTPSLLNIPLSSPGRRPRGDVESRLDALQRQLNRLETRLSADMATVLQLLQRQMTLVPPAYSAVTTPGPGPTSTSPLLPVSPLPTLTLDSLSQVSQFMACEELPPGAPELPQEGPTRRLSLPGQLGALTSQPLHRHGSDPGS

Row | Structure (SMILES) | hERG current change (%, negative = inhibition) at 1uM [%]
1 | COc1ccc(OCc2cc(C(=O)N3CCCN(C(C)=O)CC3)no2)c(Cl)c1 | 3.98
2 | CCOC(=O)CS(=O)(=O)c1ccc(O)cc1 | 26.2
3 | O=C(NCc1ccccc1)c1cc2ccccc2o1 | 8.22
4 | COC(=O)c1ccc(/C=N/NC(=O)C(=O)N2CCCCCC2)cc1 | 12.6
5 | COc1ccccc1Nc1cc(C(=O)NCc2cccnc2)c2ccccc2n1 | 1.29
6 | O=C(Nc1nc(-c2cccs2)cs1)c1ccc([N+](=O)[O-])o1 | 12.1
7 | O=C(NC1CCSc2ccccc21)c1ccc(F)cc1 (stereo not drawn) | 11.4
8 | NS(=O)(=O)c1cccc(NC(=S)NC(=O)c2cccc([N+](=O)[O-])c2)c1 | -1.67
9 | Cc1ccc(Cc2nnc(SCC(=O)Nc3ccccc3C)[nH]c2=O)cc1 | 2.01
10 | O=C(NCc1ccc2c(c1)OCO2)c1c(F)c(F)c(F)c(F)c1F | 12.5
11 | Cc1nc(C(=O)NC2CCOCC2)sc1C1(C)CC(c2ccccc2)=NO1 (stereo not drawn) | -7.55
12 | CC1C(C#N)=C(SCC(N)=O)NC2=C1C(=O)CC(C)(C)C2 (stereo not drawn) | 17.9
13 | O=[N+]([O-])c1ccc(CN2CCOCCOCCOCC2)cc1 | -20.5
14 | Cc1noc(C)c1C(=O)NNc1ccc(C(C)C)cc1 | 8.76
15 | Cc1nn(C)cc1C(=O)Nc1ccc2c(c1)OCCO2 | 2.96
16 | COc1ccc(OCC(=O)NC(=S)N2CCCc3ccccc32)cc1 | 8.47
17 | Cc1nn(Cc2cccc(Oc3ccccc3)c2)c(C)c1NC(=O)NC12CC3CC(CC(C3)C1)C2 | 10.6
18 | CCOC(=O)c1cnc2c(Cl)cccc2c1NCCN1CCOCC1 | -0.725
19 | O=c1c(Cl)c(NCc2ccc(F)cc2)cnn1C12CC3CC(CC(C3)C1)C2 | 1.33
20 | Cc1ccc(NS(=O)(=O)c2c(C)[nH]c(C)c2C(=O)N2CCCCC2)cc1Cl | 13.7
21 | CN(C)S(=O)(=O)c1ccc(Cl)c(NC(=O)COC(=O)CC(NC(N)=O)c2ccc(Cl)cc2)c1 (stereo not drawn) | 10.4
22 | O=C(c1ccc(Br)s1)N1CCN(C/C=C/c2ccccc2)CC1 | 1.78
23 | Cc1cccc(NS(=O)(=O)c2ccc(NC(=O)CN(c3cc([N+](=O)[O-])ccc3C)S(C)(=O)=O)cc2)c1 | 12.4

Row | Structure (SMILES) | hERG current change (%, negative = inhibition) at 1uM [%]
24 | CCc1nc2scc(-c3ccccc3)c2c(=O)n1N | 2.81
25 | N#C/C(=N\Nc1ccccc1)C(=N)N1CCCCCC1 | -4.82
26 | CSc1ccc(C(=O)C2CCCN(C(=O)c3ccsc3)C2)cc1 (stereo not drawn) | -2.61
27 | O=C(Nc1cccn(Cc2ccc(F)cc2)c1=O)NC1CCCCC1 | 4.18
28 | COc1ccc(-c2cc(C(=O)Nc3ccc(OC)c(OC)c3)no2)cc1 | 11
29 | CCN1C(=O)[C@H]2[C@@H](c3ccc(-c4ccc(F)cc4)c(OC)c3)N[C@@](C)(C(=O)OC)[C@H]2C1=O.O=C(O)C(F)(F)F | -1.57
30 | O=C(C1CCCO1)N1CCN(c2ncccn2)CC1 (stereo not drawn) | -1.41
31 | CN1C(=O)C(CC(=O)Nc2ccc3c(c2)Cc2ccccc2-3)N(C)C1=O (stereo not drawn) | 2.49
32 | CCCCn1nc(C(=O)Nc2cc(C(F)(F)F)ccc2N2CCOCC2)ccc1=O | -39.3
33 | Cc1cc(F)ccc1NCc1ccc([N+](=O)[O-])cc1 | 7.53
34 | O=C(OCC(=O)N1CCOCC1)c1cccc(S(=O)(=O)Nc2ccc(F)cc2)c1 | 8.13
35 | COc1ccc(N2CCN(C(=O)CN3C(=O)COc4ccccc43)CC2)cc1 | 11
36 | Cc1[nH]c(C)c(S(=O)(=O)N2CCCCC2)c1C(=O)N1CCCCC1 | 2.76
37 | CC(=O)c1cccc(NC(=S)N2CCN(S(=O)(=O)c3ccccc3)CC2)c1 | 15.9
38 | COc1ccc(NC(=O)c2cccs2)cc1 | 18.8
39 | Cc1cccc(Oc2ccc(S(=O)(=O)N3CCCCC3)cc2N)c1 | 14.7
40 | Cc1c(Cl)ccc2c(C(=O)NCCCn3nccc3C)cc(-c3ccccn3)nc12 | 9.06
41 | O=C(Nc1ccc(Cl)cn1)c1cccnc1 | 3.59
42 | CN=C1C([N+](=O)[O-])=CC=C2C1=NC1(CCCCC1)N2O | 7.62
43 | O=C(C1CN(C(=O)c2cc3cc(Cl)ccc3o2)c2ccccc2O1)N1CCCCC1 (stereo not drawn) | 12.3
44 | COc1ccc(OCC(=O)OCC(=O)N2C(C)CCCC2C)cc1 (stereo not drawn) | 2.56
45 | CC(NC(=O)Nc1ccccc1Cl)c1ccc2c(c1)OCO2 (stereo not drawn) | 9.76
46 | Cc1sc2ncnc(N3CCC(C(=O)N(C)CC(=O)Nc4ccc(Cl)c(C(F)(F)F)c4)CC3)c2c1C | 12.2

Row | Structure (SMILES) | hERG current change (%, negative = inhibition) at 1uM [%]
47 | O=C1c2ccccc2C(=O)c2c1oc(C(F)(F)F)c2C(=O)c1ccccc1 | 11.3
48 | COc1cc(C(C)=O)ccc1OCC(O)CN1CCN(c2ccc(C)c(C)c2)CC1 (stereo not drawn) | 7.9
49 | CCS(=O)(=O)N1N=C(c2ccccc2)CC1c1ccc2nccnc2c1 (stereo not drawn) | 9.12
50 | CSc1nc2ccc(NS(=O)(=O)c3ccc(CNC(C)=O)cc3)cc2s1 | 6.06
51 | COc1cc2cccc(OC)c(=O)c2c(O)c1OC | 2.94
52 | CCCCNC(=O)c1cc(C)no1 | 9.51
53 | Oc1ccccc1C1Nc2cccc3cccc(c23)N1 | 8.29
54 | Cc1ccc(-n2nc3c(=O)n(CCCC(=O)NCCc4ccccc4)nc(C)c3c2C)cc1 | 16
55 | CCO[C@@H]1OC(C(=O)N2CCN(Cc3ccc4c(c3)OCO4)CC2)=C[C@H](C2CC2)[C@H]1CCCO | 14.2
56 | CN(C)Cc1nc2ccccc2c(=O)n1CC#N | 7.68
57 | CC(=O)NCCCc1c[nH]c2ccc(Cl)cc12 | 14.7
58 | COc1cccc(/C=N/NC(=O)CCC(=O)Nc2ccc(Br)cc2)c1 | 13.5
59 | CC1(C)OC(=O)N(CC(=O)Nc2ccccc2)C1(C)O (stereo not drawn) | 18.6
60 | Cc1cccn2c(=O)nc(SCC(=O)NCc3ccco3)nc12 | 4.54
61 | Cc1sc2nc(SCc3nc(-c4cccs4)no3)n(-c3ccccc3)c(=O)c2c1C | 19.3
62 | CC(=O)c1cccc(OCc2cc(C(=O)NCCC3=CCCCC3)no2)c1 | 11.2
63 | C=CCNc1nc2c(c(=O)n(C)c(=O)n2C)n1CCCCCC | -3.73
64 | COc1cccc(-n2c(-c3ccc4[nH]c(C)c(C)c4c3)n[nH]c2=S)c1 | 5.45
65 | CCOc1ccc(NS(=O)(=O)c2cc(OC)ccc2OC)cc1 | 2.98
66 | Cc1ccc(SCC(=O)Nc2ccccc2N2CCOCC2)cc1 | 3.63
67 | CCOC(=O)c1c(C)n(C)c2cc(Br)c(OC)cc12 | 14.4
68 | CCc1ccc(NC(=O)Nc2ccncc2)cc1 | -3.38
69 | CN(CCc1ccccn1)C(=O)c1ccc(OC(F)(F)F)cc1.Cl | 3.84

Row | Structure (SMILES) | hERG current change (%, negative = inhibition) at 1uM [%]
70 | Cc1ccc(N(CCC(=O)O)S(=O)(=O)c2cccc(C(F)(F)F)c2)cc1 | 7.86
71 | Cc1nnc(N2C(=O)C(O)=C(C(=O)c3ccco3)C2c2ccc(C(C)(C)C)cc2)s1 (stereo not drawn) | 10.5
72 | CCOC(=O)c1nn(-c2ccc(C)cc2)cc1O | 17.4
73 | O=C(O)COc1ccccc1/C=C1\SC(=S)N(NC(=O)c2ccccc2O)C1=O | 7.81
74 | CN(C)C(=O)c1ccc2c(c1[N+](=O)[O-])C(=O)c1ccccc1C2=O | 14.6
75 | CCc1ccc(S(=O)(=O)NC2CC(C)(C)NC(C)(C)C2)cc1 | 5.35
76 | Cc1nc2[nH]c(=O)c3c(n2n1)NC1=C(C(=O)CC(C)(C)C1)C3c1ccccc1 (stereo not drawn) | -13.8
77 | CC1=C(C(=O)OCC2CCCO2)C(c2ccsc2)C2=C(CC(C)(C)CC2=O)N1 (stereo not drawn) | 8.65
78 | CCOC(=O)c1ccc(N2C(=O)C3CC=CCC3C2=O)cc1 (stereo not drawn) | 14.4
79 | CN(C)c1ccc(/C=C(\C#N)C(=O)OCC(=O)N(C)C2CCS(=O)(=O)C2)cc1 (stereo not drawn) | 11.2
80 | COc1ccc(CNC(=O)CCSCc2ccc(C)cc2)cc1 | 7.46
81 | Cc1ccc(C)c(S(=O)(=O)Nc2ccc(C(=O)N3CCCCC3)cc2)c1 | 13.2
82 | CC1=C(C(=O)Nc2ccccc2C)C(c2cccs2)NC(=S)N1 (stereo not drawn) | 4.18
83 | COc1ccccc1/C=N/NC(=Nc1ccc(C)cc1)c1nc2ccccc2s1 | 20.5
84 | CC1(C)Cc2ccccc2C(NNC(=O)c2ccccc2)=N1 | 7.76
85 | O=C1CC2(CCN(C(=O)c3ccccc3F)CC2)Oc2ccccc21 | -47.9
86 | CSC1=NCCN1C(=O)c1ccc2c(c1)OCO2 | 6.88
87 | CC(C)n1nnnc1SCC(=O)NNC(=O)C1CCCCC1 | 13
88 | Cc1cc(N(CCO)CCO)nc(-n2nc(C)cc2C)n1 | 6.69
89 | NNC(=O)Cn1c2ccccc2c2ccccc21 | -2.26
90 | COC(=O)c1cc(-c2ccc(Cl)cc2)n[nH]1 | 5.89
